# Source: article PMC4336329 (PLoS ONE, 2015)
# About 14,000 (4.5%) of roughly 310,000 compounds showed an effect of 50% or more. Effects have a minus sign here. The list shows a part of the results.
# Target: human ether-à-go-go-related gene (hERG) potassium channel (human, UniProt Q12809)
# Assay: primary screen, population patch clamp on CHO cells stably expressing hERG
# 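Further: peak tail current of the secondary pulse compared with the same well before compound.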
# human ether-à-go-go-related gene (hERG) potassium channel, sequence (Q12809 whole entry, looked up): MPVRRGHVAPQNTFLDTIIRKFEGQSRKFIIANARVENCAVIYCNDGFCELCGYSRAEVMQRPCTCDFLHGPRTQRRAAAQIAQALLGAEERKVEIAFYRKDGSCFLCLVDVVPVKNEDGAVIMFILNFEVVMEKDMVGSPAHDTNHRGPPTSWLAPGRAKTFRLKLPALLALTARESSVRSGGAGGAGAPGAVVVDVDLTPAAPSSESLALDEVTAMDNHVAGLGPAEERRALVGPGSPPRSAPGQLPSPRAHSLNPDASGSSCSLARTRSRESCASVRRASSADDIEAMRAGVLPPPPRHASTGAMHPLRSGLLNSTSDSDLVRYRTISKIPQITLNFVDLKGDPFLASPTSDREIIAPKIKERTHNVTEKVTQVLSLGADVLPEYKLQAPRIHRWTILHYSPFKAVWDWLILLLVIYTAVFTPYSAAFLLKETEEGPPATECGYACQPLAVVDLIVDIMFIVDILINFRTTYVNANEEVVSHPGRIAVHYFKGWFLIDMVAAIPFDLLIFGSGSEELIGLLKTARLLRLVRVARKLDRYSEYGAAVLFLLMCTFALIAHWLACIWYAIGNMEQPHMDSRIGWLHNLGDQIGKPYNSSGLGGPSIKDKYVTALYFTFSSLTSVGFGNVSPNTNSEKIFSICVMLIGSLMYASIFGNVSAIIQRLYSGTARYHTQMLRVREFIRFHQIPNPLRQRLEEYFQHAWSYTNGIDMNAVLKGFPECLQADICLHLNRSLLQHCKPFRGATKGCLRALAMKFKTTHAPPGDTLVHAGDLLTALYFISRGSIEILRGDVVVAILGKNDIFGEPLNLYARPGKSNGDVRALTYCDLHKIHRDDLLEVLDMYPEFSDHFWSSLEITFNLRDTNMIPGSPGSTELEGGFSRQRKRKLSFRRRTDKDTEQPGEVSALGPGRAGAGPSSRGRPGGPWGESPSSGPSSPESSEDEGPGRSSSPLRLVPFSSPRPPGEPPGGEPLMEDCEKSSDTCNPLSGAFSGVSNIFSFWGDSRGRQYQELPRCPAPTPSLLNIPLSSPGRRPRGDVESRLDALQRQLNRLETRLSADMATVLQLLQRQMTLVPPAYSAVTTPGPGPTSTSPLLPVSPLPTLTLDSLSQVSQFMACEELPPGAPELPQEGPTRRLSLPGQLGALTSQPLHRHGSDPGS
row,Compound,"hERG current change (%, negative = inhibition) at 10uM"
1,CC1CCN(C(=O)C2CCN(S(=O)(=O)c3cccc4cccnc34)CC2)CC1,-0.4%
2,Cc1ccc(C)c(S(=O)(=O)N2CCN(c3nc(-c4cccnc4)nc4ccccc34)CC2)c1,1.45%
3,COC(=O)c1cc(-c2ccc(OC)c(OC)c2)on1,-0.0521%
4,CN1CCN(c2cc(-c3ccccc3)nc3cc(-c4ccc(F)cc4)nn23)CC1,-14.5%
5,O=C(NCc1ccc(-c2nc3ccccc3s2)cc1)c1ccco1,-1.39%
6,CCCc1cc(=O)[nH]c(SC(C)C(=O)N2c3ccccc3CC2C)n1 (centres unmarked),-2.63%
7,FC(F)(F)c1ccc(/C=N/n2c(COc3ccccc3)n[nH]c2=S)cc1,24.2%
8,Cc1cc(Nc2ccccc2)n(CCO)n1,-6.17%
9,Cc1cc(N2CC(C(=O)O)CC2=O)ccc1Br (centres unmarked),3.88%
10,COc1cc(CNCc2ccccc2Cl)ccc1OCC(=O)NC1CCCCC1,-29%
11,CC(=O)N1CCC(C(=O)NCCOc2cccc(C)c2)CC1,25.4%
12,Cc1c(O)c(CN(C)C)cc2c1oc(=O)c1ccccc12,-31.2%
13,Cc1ccc(-c2csc3ncn(/N=C/N(C)C)c(=O)c23)o1,4.03%
14,Cc1ccccc1Nc1nc(Nc2ccccc2C)nc(SC2=NCCS2)n1,-11.2%
15,COc1ccccc1N(C)S(=O)(=O)c1ccc(Cl)c(C(=O)OCc2c(C)noc2C)c1,0.653%
16,CC(C)(C)c1ccc(C(=O)Nc2ccc(CN3CCS(=O)(=O)CC3)cc2)cc1,-10.1%
17,O=S(=O)(O)c1nc2ccccc2n1Cc1ccccc1,-10.5%
18,N#Cc1ccc(NC(=O)CN2C(=O)NC(Cc3ccccc3)C2=O)cc1 (centres unmarked),-57.7%
19,O=C(Nc1cccc([N+](=O)[O-])c1)Nc1cccs1,11.2%
20,Cc1ccc(CN2CCN(C(=O)c3ccco3)CC2)cc1,-13.5%
21,Cc1nn(C)cc1CN(C)C(=O)c1sc2cccc(Cl)c2c1Cl,-12.2%
22,O=C(N/N=C/C(Cl)=C/c1ccccc1)c1ccco1,-14%
23,COc1ccc(/C=C2\SC(=O)N(CCC(=O)N3CCCCC3CCO)C2=O)cc1 (centres unmarked),11.5%

row,Compound,"hERG current change (%, negative = inhibition) at 10uM"
1,Cc1cc(C)nc(SCc2ccc(Br)cc2)n1,13.4%
2,COc1ccc(N2CCN(c3ccc([N+](=O)[O-])cc3Cl)CC2)cc1,-12.1%
3,COc1ccc(S(=O)(=O)N2CCN(Cc3ccccc3)CC2)c(C)c1,-19%
4,COc1ccccc1N1CCN(S(=O)(=O)c2c(C)ccc3nsnc23)CC1,-28.3%
5,CCOc1ccc(NC(=O)CN2C(=O)COc3ccccc32)cc1,5.4%
6,CC(C)(C)NCc1cc2ccccc2[nH]c1=O,-2.18%
7,CC1(C)CC(=O)c2c(O)cc(O)cc2O1,5.96%
8,O=C(NCCc1c[nH]c2ccccc12)/C(=C/c1ccco1)NC(=O)c1ccco1,-42.5%
9,CSc1nc2nc(C(F)(F)F)cc(-c3ccccc3)n2n1,6.32%
10,COc1ccc(S(=O)(=O)NCCc2ccccc2)c2cccnc12,9.98%
11,COC(=O)c1ccc(N2CCS(=O)(=O)CC2)cc1,30.7%
12,CC(=O)[C@@]1(O)[C@H](C)CC2C3CC=C4CC(OP(=O)(O)O)CC[C@]4(C)C3CC[C@@]21C (some centres unmarked),41.4%
13,CC(Cc1c[nH]c2ccccc12)NC(=O)C1CCCNC1=O (centres unmarked),9.5%
14,O=C(Nc1ccccc1)NC1CC2CCC(C1)N2 (centres unmarked),7.72%
15,Cc1ccc(CCNC(=O)CN(C)S(=O)(=O)c2ccc3c(c2)c(=O)n(C)c(=O)n3C)cc1,-11.7%
16,CCN(c1ccccc1)S(=O)(=O)c1ccc(OC)c(NC(=O)CNCC(C)O)c1.O=C(O)C(=O)O (centres unmarked),-0.938%
17,COc1cccc(CNC(=O)c2ccc(NC(=O)C3CCCO3)cc2)c1 (centres unmarked),-7.25%
18,CCOc1ccc(C2C3=C(CCCC3=O)Nc3ccc4ncccc4c32)cc1 (centres unmarked),-47.2%
19,COc1cccc(C(=O)N2CCN(C(=O)c3cccc(F)c3)CC2)c1,-0.0938%
20,O=C(NC1CCS(=O)(=O)C1)C1CCCN(S(=O)(=O)c2ccc(Cl)cc2)C1 (centres unmarked),-13.9%
21,Cc1cc(NC(=O)Nc2ccccc2)n(-c2ccccc2)n1,0.97%
22,O=c1[nH]c(=O)n(CCO)c2nnn(Cc3ccccc3)c12,13%
23,CCOc1ccccc1NC(=O)c1ccccc1-c1nc(-c2ccccc2OC)no1,-35.6%

row,Compound,"hERG current change (%, negative = inhibition) at 10uM"
1,CC1Oc2ccccc2N(CC(=O)N2CCCCC2)C1=O (centres unmarked),5.74%
2,CC(=O)N1N=C2c3ccccc3CCC2C1c1ccc(F)cc1 (centres unmarked),13%
3,O=C(Cc1c(F)cccc1Cl)Nc1ccccn1,13.2%
4,O=C(CNC(=O)C(c1ccccc1)c1ccccc1)N/N=C/c1cccnc1,-9.6%
5,CC1(C)Cc2c(sc3nc4n(-c5ccccc5)c(=O)c(CCC(=O)O)nn4c(=O)c23)CO1,12.9%
6,N#Cc1ccccc1Sc1ccccc1C(=O)N1CCOCC1,3.34%
7,CC(=O)N1CCc2cc(Br)cc(S(=O)(=O)CCC(=O)Nc3c(C)n(C)n(-c4ccccc4)c3=O)c21,26.3%
8,CCOc1ccc(C(=O)NNC2CC(=O)N(CCc3ccccc3)C2=O)cc1OC (centres unmarked),4.18%
9,CN(c1ccccc1)S(=O)(=O)c1cc(C(=O)OCC(N)=O)ccc1Cl,-4.09%
10,NC(=O)c1ccccc1OCCOc1ccc(Br)cc1,5.78%
11,Nc1nc(NC(=O)/C=C/c2ccc(F)cc2)nn1-c1ccccc1,-53.4%
12,COc1cc2c(cc1OC)C(c1cc(OC)c(OC)c(OC)c1)NCC2 (centres unmarked),25%
13,COc1ccc(C(=O)NCCS(=O)(=O)N2CCCCCC2)cc1,6.58%
14,Nc1ccc(Nc2ccccc2)c(S(=O)(=O)O)c1,0.697%
15,C=CCn1c(SCC(=O)c2ccccc2)nnc1-c1cc2ccccc2o1,-18.5%
16,COc1ccc(CNC(=O)CCc2c[nH]c3ccccc23)cc1,17.1%
17,COc1ccccc1C/C(N)=N/OC(=O)COc1ccccc1C,-1.77%
18,Cc1cccc(-n2c(SCC(=O)N3CCC(C(=O)O)CC3)nc3ccccc3c2=O)c1C,0.423%
19,CCc1ccc(-n2c(=S)sc3c(=O)n(-c4ccccc4)c(SCC(=O)O)nc32)cc1,23%
20,CC(=O)N(C(C)=O)c1c(N2CCCC2)c2ccccc2oc1=O,5.13%
21,O=C(C/C=N/OCc1c(Cl)cccc1Cl)c1cnc(-c2ccccc2)s1,20.9%
22,O=c1[nH]c(C(F)(F)F)nc2ccccc12,12.8%
23,CCOC(=O)c1c(NC(=O)C2CC2)sc(C)c1CC,0.411%

row,Compound,"hERG current change (%, negative = inhibition) at 10uM"
1,CCCCn1nnc(NC(=O)CC23CC4CC(CC(C4)C2)C3)n1,-11.2%
2,CN(C)CCCN(C(=O)c1ccc2c(c1)CCCC2)c1nc2c(F)cccc2s1.Cl,-70%
3,CCc1noc(C)c1C(=O)N(C)CC(=O)Nc1cccc(OC)c1,12.7%
4,CCC(=O)c1cc(F)c(N2CCN(S(=O)(=O)c3ccccc3)CC2)cc1C,7.67%
5,O=C(O)C1CC(=O)N(CCc2c[nH]c3ccccc23)C1 (centres unmarked),16.2%
6,O=C(CC1N=C(Cc2ccccc2)NNC1=O)N/N=C/c1ccc([N+](=O)[O-])cc1 (centres unmarked),-5.85%
7,COC(=O)CSc1ncccc1-c1nc2ccccc2[nH]1,5.54%
8,CN(CC(=O)NC(=O)NCc1ccco1)CC(=O)Nc1ccccc1Cl,-4.66%
9,COc1ccc(CN(CC(=O)NCc2ccc(F)cc2)C(=O)c2csnn2)cc1,-58.5%
10,COc1cc2c(cc1OC)CN(C(=O)c1cc(S(=O)(=O)N3CCOCC3)ccc1C)CC2,-0.162%
11,CCN(Cc1ccccc1)c1ccc(/C=N/N2CCOCC2)cc1,-31.5%
12,Cc1ccc(/C=N/c2sc(Cc3ccccc3)c(C)c2C(N)=O)o1,-4.3%
13,COc1ccc(OC)c(C(=O)NC(CC(N)=O)c2ccc(NCCOc3ccccc3)c([N+](=O)[O-])c2)c1 (centres unmarked),-1.02%
14,COc1ccc(-c2csc(-c3ccc(C(=O)O)cc3)n2)cc1,18.6%
15,COc1cc(CN2CCN(CCc3ccccc3)C(CCO)C2)cc(OC)c1 (centres unmarked),-63.5%
16,Cc1csc(NC(=O)c2c(-c3c(F)cccc3Cl)noc2C)n1,-10.9%
17,O=C(c1cnn2c(-c3ccccc3)cc(-c3ccccc3)nc12)N1CCN(Cc2ccccc2)CC1,-3.82%
18,CNc1c(NS(=O)(=O)c2ccc(OC)cc2)c(=O)oc2ccccc12,11%
19,CCO[C@H]1OC(C(=O)NCc2ccccc2)=C[C@@H](C2CC2)[C@@H]1CCCO,11.2%
20,Cc1ccc(OCC(=O)Nc2ccccc2Sc2ccc(Cl)cc2)c([N+](=O)[O-])n1,-4.66%
